Experimental data reported in the supplement of paper PMC3334620.
Over roughly 33,000 sequences, “E-score (-0.5 to 0.5)” has its median near -0.011; the highest 2% begin near 0.28. This is one part of the list.

Target: T1, Gcr1 (UniProt P07261)
T1 sequence: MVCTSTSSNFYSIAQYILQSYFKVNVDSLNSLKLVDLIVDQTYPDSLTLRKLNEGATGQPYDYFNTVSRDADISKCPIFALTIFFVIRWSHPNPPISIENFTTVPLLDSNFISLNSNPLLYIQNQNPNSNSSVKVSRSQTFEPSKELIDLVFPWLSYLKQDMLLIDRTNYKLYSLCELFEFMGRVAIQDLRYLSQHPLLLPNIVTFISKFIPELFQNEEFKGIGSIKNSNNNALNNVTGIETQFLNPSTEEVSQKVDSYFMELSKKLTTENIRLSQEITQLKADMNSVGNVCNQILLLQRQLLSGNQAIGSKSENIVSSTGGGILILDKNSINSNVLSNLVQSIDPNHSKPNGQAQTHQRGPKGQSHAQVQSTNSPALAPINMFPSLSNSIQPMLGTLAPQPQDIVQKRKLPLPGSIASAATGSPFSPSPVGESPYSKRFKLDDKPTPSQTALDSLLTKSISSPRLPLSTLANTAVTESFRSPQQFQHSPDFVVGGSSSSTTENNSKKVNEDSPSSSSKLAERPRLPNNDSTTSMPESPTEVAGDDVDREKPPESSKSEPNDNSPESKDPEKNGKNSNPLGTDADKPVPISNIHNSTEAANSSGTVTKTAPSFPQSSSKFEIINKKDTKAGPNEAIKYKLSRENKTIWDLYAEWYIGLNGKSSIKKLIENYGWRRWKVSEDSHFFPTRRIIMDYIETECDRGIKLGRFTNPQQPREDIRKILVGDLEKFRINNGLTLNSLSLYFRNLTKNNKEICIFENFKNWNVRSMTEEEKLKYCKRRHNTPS
Test: PBM E-score (8-mer binding enrichment) (E-score (-0.5 to 0.5)); higher = stronger / more preferred TF binding; most listed sequences are background and not binding sites
Conditions: protein concentration: 100 nM; construct: GST-full length
In short: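 Each ungapped eight-base word and its reverse complement, pooled, received an E-score from the Universal PBM Analysis Suite. Underlying scans, normalised with masliner, recorded fluorescent anti-GST bound to GST-tagged yeast transcription factors. These were applied at about 100-200 nM to universal all-10-mer Agilent arrays double-stranded by primer extension.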

Sequence	PBM E-score
CTTGATAA	-0.128
GTCAGCAC	0.0132
GCCACGAA	-0.0525
ATACTTTC	0.0097
ACTCTGTC	-0.11
CCCGAGTA	0.117
CCCCAAAC	0.0601
ACTCGAAG	0.0605
CCCTCTCA	-0.131
TAATCCAA	0.134
CGTGGGAG	-0.106
CCGAACCC	-0.0679
CTTCCTAA	0.294
CCGCACTA	0.0887
ATATGTCC	-0.108
ACCCCCAT	-0.0624
ACAAGTTC	0.0303
CCAATGAG	-0.12
AGCTGTCG	-0.178
TATACAAA	0.0874
GTCGACAA	-0.214
GCCGCTTA	0.06
CCGAAGAG	-0.247
GGGCGTGA	-0.14
ACCGAGAG	0.0294

Sequence	PBM E-score
AACGGACC	-0.129
GGAACTAA	0.0124
AGCCAGAT	0.196
AGGCAAAA	0.0855
ATCACAGA	0.0319
CTGACGGC	-0.155
AATTACGC	0.106
GAAGTGCA	-0.0459
AGTGGGGC	0.12
GTCTAGCA	-0.0076
TTTGCAAA	0.21
TCACGTCA	0.0641
GCCCTAGC	0.0549
CATATTTA	0.0626
GCGGTCAA	-0.0507
CCGCGGTC	-0.269
AAGATAAT	-0.136
ACTCCAAG	0.052
ACGGTAAA	-0.0721
TAAAGTGA	0.0303
ACAGTGTA	-0.0798
ACAATGCG	-0.0857
ACCCTTGA	-0.201
GAGTTGCC	-0.0379
AAAAACGC	-0.0227

Sequence	PBM E-score
AGATGACG	-0.0775
AGAGCGAC	-0.0628
CCTATGAG	-0.0253
AAGACGTC	0.00239
CCCTCGAG	-0.0318
ACCTGCAG	-0.208
AACTGTCA	-0.152
AGTTGCGA	0.0737
AGCTAGTC	-0.0999
CATCTCGC	-0.136
ATCTAACG	0.0927
AGAAGCAC	0.126
CGGACCGC	-0.134
AATCTAGA	0.0499
GGTGCTCA	0.238
CGTTCTCC	-0.157
AGATCAGA	-0.0273
CGGATACC	0.274
ACCTAAGC	-0.0466
ACGTTAAG	-0.181
ACTGATAG	0.0688
TGCCACCA	0.0745
AGTAGGAC	-0.312
CAAGTCTC	-0.242
CAGCTGCA	-0.0536

Sequence	PBM E-score
TTACGTAA	-0.0317
AGCCCTTC	-0.0895
CAACTAAG	0.00446
GCTGCGCC	0.131
AGCAGTCG	-0.171
AAAGGTAT	0.0383
AGCCACCC	-0.003
ACCGAAAT	0.0979
AGCATAAA	0.107
GAACCAAA	0.113
ACGTCCAC	0.104
AGAACGAA	-0.0256
AGCCGTAC	-0.195
CGAGCATC	0.167
CGCGCCGA	0.0709
CCCGGCCA	-0.199
GATAAGAA	0.19
TGAAGACA	-0.1
TCTGGGCA	0.122
ACAAACAG	-0.0378
AGCCGACT	0.101
AGCGGAGG	-0.0972
CTTGGCTC	0.00348
AACCTATC	0.0326
AAAGCTCT	-0.192

Sequence	PBM E-score
ACGAAGGG	-0.127
CCGTCACA	-0.0656
TACTTTCA	0.00431
CTTACATA	-0.0232
CAATCGTC	-0.185
AGATACCG	0.239
ACGTAGGC	0.0527
GGCGTTAC	-0.0932
ACCTTAGG	0.0879
CCCTACTC	-0.0821
AGTGACAC	-0.0357
AATCTACA	0.12
GAATCACA	-0.0739
CCCCCTTA	-0.18
AGCTTGAC	-0.0336
GGGCCACA	-0.0384
CCGTCGTC	-0.167
ATTCGCGC	-0.102
CCGCGCAG	-0.219
CCGTATCG	0.0996
CGCTTAAC	0.111
CAGACGAG	0.0723
CGCAGACG	-0.098
AGTCCTCA	-0.104
ATCCTGCA	0.152

Sequence	PBM E-score
CAAGTACG	-0.0508
CATAGGTC	-0.0679
GGGCCCCA	0.226
AGAAGCCC	0.386
AAGGTCCA	-0.0929
GTGTTGAA	-0.0892
ATTGAATG	-0.0928
GACCGATC	-0.167
ATTACTCA	-0.13
ACTATGCC	-0.0755
AGTACTAT	-0.0772
CCAAATGC	0.128
AAAAGTGG	0.381
ACAATGTC	-0.0997
AACACTCT	-0.0466
CCCTGCGG	-0.124
AGCCAGTG	0.0186
AAGCGTGT	0.00535
AGTTGTTA	0.0638
ATCCGCCG	0.103
CGCTATAA	0.128
TCGGGTCA	-0.0362
CACTTGAA	0.094
AAACGCTT	0.0018
TCTTAACA	0.0545

Sequence	PBM E-score
CGCATAGA	-0.00804
CGAGACGC	0.131
AATACATT	0.0975
AGTTAACC	-0.232
AGGAGCAT	-0.0673
CAATGCAG	0.0715
CTTACAGA	0.0818
AGCGCAGC	-0.141
AGATAAGA	0.208
CTAATCGA	-0.0752
ACTCTGAA	0.0345
AATACCGA	0.0609
CGTGACTA	-0.109
ACAGGCAC	-0.0443
CAGTCAAA	-0.138
CCCGATGA	-0.0833
TATGGCGA	-0.0402
ATAGAGAA	-0.111
ACCCCACT	0.129
CATATAAC	-0.133
CGGGTTCA	-0.204
AGTCCACA	0.0891
CACTTCCA	0.312
AGCGCCTC	0.103
ACAGTATG	-0.0202

Sequence	PBM E-score
TCTAGCCA	0.0145
CCCTTCGC	-0.0758
ACTCCGGG	0.12
GGGGATAA	0.0423
AAAGCAAC	0.0209
AACAGTCG	-0.123
AAGCACAG	-0.0841
AACATTAT	0.0735
CAGATGTA	0.0597
AAATGTAT	0.177
CAAGCCGA	-0.038
GGTCTTCA	-0.162
ATCATATC	-0.0313
GACAATGA	-0.00202
GAGTGCCA	0.0104
ATAGAGAT	-0.167
GCAGCCGA	0.277
GCACGAAA	-0.0486
GCGCTGTA	-0.124
ATTCGTGA	-0.136
ACATTGCG	-0.151
AACACCCA	-0.0911
CGCTACTA	0.127
GCCAAGTA	0.123
CGCAAAAA	0.167

Sequence	PBM E-score
CAAGAATC	0.247
TGCTGACA	0.0611
AAATATAT	0.152
AACAACCG	-0.0918
ATCAACGA	0.0103
TATAATCA	-0.0344
CAGGACAC	-0.0467
TGATCTAA	-0.135
GTAGAAAA	0.0747
CGGATGTA	-0.227
AGGAGGCA	0.00383
TTGGTAAA	0.177
GAATCGCC	0.00157
CCCGTGAA	-0.092
AGGCTTCC	0.436
ACTTACGG	0.0589
ATGAGGCC	-0.0192
GCTGTGGA	0.0554
AAATGGCC	-0.203
ACAGACGG	-0.12
CTTGACTC	0.0413
GGTCTGAA	-0.151
AGCCGATA	-0.152
CAAATTCC	0.0436
CCATAGAA	0.152

Sequence	PBM E-score
CACGGTTA	0.069
CCGGGCCC	0.14
AGTACCAA	0.155
AGCACGTC	0.134
ACGGCGGA	-0.0348
CAAAGGGA	-0.206
TGCGTTAA	0.124
AGTCGTGG	-0.0196
GAACAAAC	-0.0101
ATACACAC	-0.0453
TTACAGAA	0.108
GTATCACA	-0.221
AACATCAC	-0.0944
GGAATCGA	0.141
CTAGCAAG	-0.0902
GGAGAACA	-0.251
CAAACCTG	0.0135
AAATCCAA	0.142
ATAACTGG	0.131
GAAGGAGA	-0.0033
CAGAGAGA	-0.26
CACGTATC	0.0921
CAGGGTCA	-0.117
ATGGAGGA	-0.11
GAGGCCTA	-0.125

Sequence	PBM E-score
AGGGCGCA	-0.0301
CTGAGCGA	0.0143
GGTAAAAC	-0.056
ACAATCCG	-0.0948
CGGTTTCA	0.0896
CCTTGTGA	-0.0583
CGCTGCCC	0.164
CACAACGA	-0.0328
CAAGGTGG	-0.142
CGGGGTAG	-0.136
AATTATTC	0.136
GCAGATTA	0.0499
CAGTGCCG	-0.104
AAATCGCA	-0.021
AGAAATTC	0.127
ACCACCAC	0.0845
AGCTAAGG	-0.342
ACGCCTTG	-0.0123
AGTCTGAA	-0.131
AGTACGGA	0.0175
ACTCAGAC	-0.0163
AAAACAGT	0.00474
ACAGCCCG	-0.248
ATAGTCTC	-0.0618
AAAGCTTT	-0.163

Sequence	PBM E-score
AATCTCTG	0.0202
CCGGCTGC	0.314
CAATAAAA	0.104
AGAGAGAA	-0.169
AAAAGGCC	-0.304
CTGATGGA	-0.101
AAAAACGG	0.153
CCAATTAA	0.135
AGTGTTAA	-0.0187
ACTAACAG	0.0424
AACTCCGA	0.0285
GAGTCAGA	-0.0648
CTGTAGAA	0.144
AGAGGAAA	-0.0469
ACTGAGCC	0.0241
GATAGCAA	-0.0125
ATGCATTA	-0.0992
AGGACAAT	0.0166
ACACAGAG	-0.246
CCGTTATA	0.11
ATGATCTG	-0.132
AGGGACCT	-0.0783
ACAACTGC	0.0629
AAATACAT	0.138
GAAGTTAA	0.0459

Sequence	PBM E-score
CAAACCAC	-0.00581
ACATCAAT	0.114
AGGCTGAG	-0.177
CCAAAGTA	0.133
CCGGGAGC	0.157
CGCTGTGC	-0.0976
CAACATCC	0.0729
CGACAAGC	0.00356
ATAGCCAG	0.0137
GAAAAGGA	0.0614
ATCAATGC	-0.0961
AACATCCA	0.193
GGACAAAC	-0.0583
AAACCCAG	0.104
ACATCAAC	0.126
CCACCAAG	0.227
AATAACAC	0.153
GACCAAGC	-0.0512
ACGGGTCA	-0.303
ACCTCCAA	-0.0916
ATGGAAAA	0.0168
AAATTGAT	0.212
ATTTGTGA	0.0546
TCCTGCCA	0.119
GAGCTAAA	-0.125

Sequence	PBM E-score
CCTGATCG	-0.0404
ATCCCATC	-0.0212
AAACTAAT	0.036
GTTACAAC	0.00785
ATCTTCGG	-0.104
ACGTGCCT	-0.102
ATTTGGGA	0.301
AATCGAAC	-0.0628
ATGTCAAT	-0.0274
GTCCCCAC	0.198
GAGTGGTA	0.0824
AGCCTGCG	-0.318
CAGTTGTC	-0.0203
GTATCAGA	-0.0598
GGACTGCA	-0.13
CTTCGAAC	-0.114
GACTCACC	-0.256
GCCACTCA	0.0462
TATAGGAA	0.318
